# Measured values taken from publication PMC4336329 (PLoS ONE, 2015).
# Out of some 310,000 compounds screened, about 14,000 (4.5%) showed an effect of 50% or more. Effects have a minus sign here. The list shows a part of the results.
# Biological target: human ether-à-go-go-related gene (hERG) potassium channel (human, UniProt Q12809)
# Test: primary screen, population patch clamp on CHO cells stably expressing hERG
# 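Note: peak tail current of the secondary pulse compared with the same well before compound.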
# human ether-à-go-go-related gene (hERG) potassium channel, sequence (Q12809 whole entry, looked up): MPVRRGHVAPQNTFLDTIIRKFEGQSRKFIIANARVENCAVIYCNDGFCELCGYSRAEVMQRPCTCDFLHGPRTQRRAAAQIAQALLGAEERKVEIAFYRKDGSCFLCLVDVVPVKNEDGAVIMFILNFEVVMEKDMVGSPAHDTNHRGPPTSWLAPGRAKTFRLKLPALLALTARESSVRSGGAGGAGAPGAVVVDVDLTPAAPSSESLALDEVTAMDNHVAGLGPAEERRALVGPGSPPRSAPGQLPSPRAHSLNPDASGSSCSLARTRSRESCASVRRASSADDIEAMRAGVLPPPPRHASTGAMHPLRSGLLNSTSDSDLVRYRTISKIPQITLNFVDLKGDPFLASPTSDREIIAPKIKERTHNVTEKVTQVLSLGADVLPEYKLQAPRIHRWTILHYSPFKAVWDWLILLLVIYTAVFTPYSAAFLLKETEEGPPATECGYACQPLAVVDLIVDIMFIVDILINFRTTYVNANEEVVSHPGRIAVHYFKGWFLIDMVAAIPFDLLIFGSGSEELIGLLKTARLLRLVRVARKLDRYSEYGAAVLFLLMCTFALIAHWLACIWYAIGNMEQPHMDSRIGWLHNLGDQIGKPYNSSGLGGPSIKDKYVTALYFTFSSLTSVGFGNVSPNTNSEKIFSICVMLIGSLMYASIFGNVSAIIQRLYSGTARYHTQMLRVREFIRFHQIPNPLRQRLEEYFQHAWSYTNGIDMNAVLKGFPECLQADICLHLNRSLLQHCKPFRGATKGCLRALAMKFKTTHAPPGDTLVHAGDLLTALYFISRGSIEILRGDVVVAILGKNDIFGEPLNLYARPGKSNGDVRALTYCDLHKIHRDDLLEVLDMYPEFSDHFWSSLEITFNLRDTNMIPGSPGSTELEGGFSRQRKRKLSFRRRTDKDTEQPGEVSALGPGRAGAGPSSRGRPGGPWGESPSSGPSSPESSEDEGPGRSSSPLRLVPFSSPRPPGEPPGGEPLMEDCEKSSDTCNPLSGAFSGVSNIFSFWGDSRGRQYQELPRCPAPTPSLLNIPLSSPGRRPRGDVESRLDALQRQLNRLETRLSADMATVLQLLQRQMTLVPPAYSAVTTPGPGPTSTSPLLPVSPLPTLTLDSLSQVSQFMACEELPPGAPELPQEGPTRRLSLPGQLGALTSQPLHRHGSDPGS
row,SMILES,"hERG current change (%, negative = inhibition) at 10uM"
1,N#CCn1c(Cc2ccccc2)nc2ccccc2c1=O,7.34%
2,O=C(Cn1c(=O)oc2ccccc21)N1CCN(S(=O)(=O)c2ccccc2)CC1,-24.1%
3,Cc1ccc(S(=O)(=O)N2CCN(C(=O)c3ccco3)CC2)c(C)c1,-7.22%
4,C1CCN(c2c3c(nc4nnnn24)CCCC3)CC1,-2.33%
5,c1coc(-c2nc3ccccc3nc2-c2ccco2)c1,-4.79%
6,CCC(Oc1ccccc1)C(=O)Nc1nnc(C)s1 (stereo not shown),-3.23%
7,COc1cccc(S(=O)(=O)Nc2cccc(C(=O)N3CCOCC3)c2)c1,12.3%
8,O=C(NNC(=O)C1CC=CCC1)c1ccccc1Cl (stereo not shown),16.5%
9,O=C(Nc1ccccc1F)c1ccc(CN2CCN(c3ccccc3)CC2)cc1,-70.7%
10,O=S(=O)(NCc1csc(-c2cccnc2)n1)c1ccc(Br)cc1,-1.17%
11,Cc1c(C(=O)O)sc2nc(C)n(C)c(=O)c12,3.62%
12,CCCCn1c(N)c(N(CC)C(=O)c2ccncc2)c(=O)[nH]c1=O,2.8%
13,CCc1ncc(C(O)c2cccc3ccccc23)n1C (stereo not shown),0.159%
14,COc1cc(/C=C(\C#N)c2ccccn2)ccc1OCc1ccc(Cl)cc1,9.63%
15,COC(=O)c1cc2sc(Cl)cc2n1CC(=O)Nc1ccc(OC)c(OC)c1OC,-68.9%
16,COc1ccc(NC(=S)Nc2cccc(C(F)(F)F)c2)c(C)c1,8.41%
17,COc1cc(/C=C2\SC(=S)N(NC(=O)c3cccc(O)c3)C2=O)ccc1O,8.96%
18,CN(CC(=O)Nc1ccccc1C(F)(F)F)C(=O)COc1ncnc2ccccc12,1.42%
19,Cc1ccc(S(=O)(=O)N(CC(=O)NC2CCCCCC2)c2ccccc2F)cc1,4.92%
20,COc1cccc2cc(C(C)N(CCCN3CCOCC3)C(=S)Nc3cccc(C)c3C)oc12 (stereo not shown),0.505%
21,COc1ccc(CN(C)C(=O)c2ccncc2)c(OC)c1,-2.49%
22,COc1ccc(NC(C)=O)cc1CNC(=O)CN1CCOCC1,19.1%

row,SMILES,"hERG current change (%, negative = inhibition) at 10uM"
1,CCN(C(=O)CSc1nnc2nc(C)cc(C)n12)c1ccccc1,6.53%
2,COc1ccccc1/C=C/C(=O)c1ccc(Cl)cc1,-3.25%
3,CCC(Oc1ccccc1)C(=O)NCCCN1CCOCC1 (stereo not shown),1.93%
4,COc1ccc(-c2c[n+]3c(n2-c2ccccc2)SCC3)cc1.[Br-],-45.7%
5,CN(C)c1ccc(-c2nnc(-c3cccs3)o2)cc1,11.9%
6,CCCCn1c(N)c(N(CC)C(=O)CSc2nnnn2-c2cc(C)ccc2C)c(=O)[nH]c1=O,-3.92%
7,O=C(OCC(=O)C12CC3CC(CC(C3)C1)C2)c1ccc(O)cc1O,11.5%
8,Cc1ccccc1NC(=S)NC(=O)CCc1ccccc1,6.92%
9,CC(C)(CNC(=O)c1sc2cc(Cl)ccc2c1Cl)N1CCOCC1,-23%
10,O=C(O)/C=C/c1ccc(S(=O)(=O)N2CCN(CCN3C(=O)C4C5C=CC(C5)C4C3=O)CC2)cc1 (stereo not shown),10.6%
11,O=C(CCNC(=O)c1ccccc1)Nc1cccnc1,26.3%
12,CCN(CC)CCN(C(=O)CCOc1ccccc1)c1nc2ccc(F)cc2s1.Cl,-8.61%
13,COc1ccc(S(=O)(=O)NCC(=O)N(CC(=O)NCC2CCCO2)c2c(C)cccc2C)cc1 (stereo not shown),-8.06%
14,O=[N+]([O-])c1ccc(Nc2ccc(F)cc2)cc1,4.63%
15,Cc1ccc(S(=O)(=O)N2CCN(c3ccccn3)CC2)cc1,4.96%
16,CC(=O)OCCC(NS(=O)(=O)OCC(Cl)(Cl)Cl)c1ccccc1 (stereo not shown),-2.65%
17,CC(=O)NC(=O)c1nnn(Cc2ccccc2)c1NC(C)=O,-10.5%
18,CC1Sc2ccc(S(=O)(=O)N3CCC(C(=O)NCc4ccccc4)CC3)cc2NC1=O (stereo not shown),-7.45%
19,CN(C)c1cccc(C(=O)NCCCSc2ccccc2)c1,4.72%
20,CC(=O)OCc1nc2sc(C)c(C)c2c(=O)[nH]1,1.77%
21,Nc1cccnc1-n1nc(C(F)(F)F)cc1C(F)(F)F,8.5%
22,COc1cccc(-c2nc(CS(=O)(=O)c3ccccc3)no2)c1,-21.1%

row,SMILES,"hERG current change (%, negative = inhibition) at 10uM"
1,Cc1ccc(SCC2(O)CCN(S(=O)(=O)c3ccc(Cl)cc3)CC2)cc1,-3.52%
2,CNC(=S)N1CCc2ccccc2C1,-6.86%
3,Cc1cc2nc(Cl)c(Cl)nc2cc1C,-2.57%
4,CCCc1c(C)nc(SCC(=O)C(C)(C)C)nc1OC(=O)N(C)C,-8.88%
5,CC(=O)N(c1ccc(N(C(C)=O)S(=O)(=O)c2cccs2)cc1)S(=O)(=O)c1cccs1,-21.9%
6,CC1(C(=O)NCCOc2ccccc2Cl)CC1(Cl)Cl (stereo not shown),7.02%
7,COc1cc(NS(=O)(=O)c2ccc(N/C=C\C(=O)c3ccc(C)cc3)cc2)nc(OC)n1,10.2%
8,COc1ccc(C2CC(c3ccccc3)=NN2C(=O)CSc2nccc(=O)[nH]2)cc1 (stereo not shown),-8.31%
9,Cc1cc(C(=O)Nc2ccc3c(c2)OCCO3)ccc1[N+](=O)[O-],12%
10,COc1cc(/C=C/C(=O)O)ccc1OS(=O)(=O)c1cc(Br)ccc1C,-3.39%
11,C#CCOc1ccc(C2C(C#N)=C(N)Oc3cc(O)ccc32)cc1 (stereo not shown),-2.71%
12,Cc1cc(C)cc(N(CC(=O)NCc2ccccc2)C(=O)CCC(=O)Nc2ccccn2)c1,25.6%
13,COc1cc(S(=O)(=O)Nc2c(C)cc(C)cc2C)ccc1Cl,-1.86%
14,CCOCCn1c(=NC(=O)CSCC(=O)N2CCOCC2)sc2cc(OC)ccc21,-14.4%
15,O=[N+]([O-])c1ccccc1S(=O)(=O)Oc1ccc(C(=S)N2CCOCC2)cc1,-75%
16,CN(C)C(=O)c1cn(-c2ccccc2)nc1-c1cccs1,14.9%
17,CC1Cc2ccccc2N1C1=CC(=O)CC(C)(C)C1 (stereo not shown),-9.24%
18,O=c1cc(-c2ccc([N+](=O)[O-])cc2)c2cc3c(cc2[nH]1)OCCO3,-12%
19,Cc1ccc(N2CCN(/N=C/c3ccccc3[N+](=O)[O-])CC2)cc1,-0.0251%
20,Cl.OC(COCc1ccc2c(c1)OCO2)CN1CCN(Cc2ccccc2)CC1 (stereo not shown),-33.1%
21,O=C1OCCC1Sc1nnc(-c2ccc(F)cc2)n1Cc1ccccc1 (stereo not shown),-22.6%
22,Cc1sc(NC(=O)c2ccco2)c(C(=O)c2ccc(Cl)cc2)c1C,22.6%

row,SMILES,"hERG current change (%, negative = inhibition) at 10uM"
1,O=C(COC(=O)c1c(F)cccc1F)Nc1ccc2[nH]c(=O)[nH]c2c1,20.3%
2,COc1ccc(Nc2nc(C(=O)NCCCN3CCOCC3)cs2)cc1,-17.4%
3,CC(=O)Nc1ccc(S(=O)(=O)NCCC(=O)NCc2ccncc2)cc1,-45.7%
4,CCOC(=O)c1c(C2COc3ccccc3O2)csc1NC(=O)c1ccccc1 (stereo not shown),33.1%
5,COc1cc(C(=O)N2CCN(C(=O)c3ccccc3)CC2)cc(OC)c1OC,8.49%
6,O=C(NCCCn1ccnc1)c1ccc(NS(=O)(=O)c2ccc(Cl)c(Cl)c2)cc1,18.8%
7,COc1ccc(NC(=O)CSc2ccc3nnc(-c4ccccn4)n3n2)cc1OC,-18.1%
8,CCc1ccc(CN(C(=O)COc2c(C)cccc2C)C2CCS(=O)(=O)C2)cc1 (stereo not shown),-12.2%
9,Cc1onc(-c2ccccc2Cl)c1C(=O)OCc1nnc(-c2ccccc2)o1,-16.7%
10,COc1ccc(-n2c(SCC(=O)Nc3ccccc3)nc3c(c2=O)SCC3)cc1,-18.7%
11,CC(=O)c1cccc(N(CC(=O)Nc2ccc(S(=O)(=O)N3CCCC3)cc2)S(C)(=O)=O)c1,-1.63%
12,CC1(C)CC(=NNC(=O)c2n[nH]c3c2CCC3)CC(C)(C)N1,11.5%
13,CCOc1ccc(CCNc2nc3ccccc3n3c(C)nnc23)cc1OCC,12.3%
14,N#Cc1ccc(OCCN2CCc3ccccc3C2)cc1,-45.2%
15,COc1ccc(OC)c(S(=O)(=O)Nc2ccc(CC(=O)O)cc2)c1,-1.5%
16,CCCOC(=O)c1c(-c2ccccc2)nc(CC)c(C(=O)SCC)c1CCC,20.7%
17,O=C(CSc1nc2ccccc2c(=O)n1-c1ccc(F)cc1)Nc1ccc(C(=O)O)cc1,0.205%
18,CCOC(=O)c1nc(NCc2cccnc2)c2ccccc2n1,-15.3%
19,O=C(COC(=O)c1cc([N+](=O)[O-])ccc1N1CCOCC1)c1ccc(OC(F)F)cc1OC(F)F,-3.18%
20,Cc1cc(C(=O)Nc2ccc(S(=O)(=O)N3CCCC3)cc2)no1,23.6%
21,Cc1ccc(/C=N/NC(=O)c2c(C)nc3ccc(Br)cn23)cc1,19.2%
22,Oc1ccc(Cl)cc1-c1cc(-c2ccco2)[nH]n1,16.2%
